# In all, about 3,200 compounds went through this assay and about 75 (2%) showed an effect of 50% or more. The list shows a part of the results.
# System: T1, S. aureus MSSA476
# T1 construct: MSSA476
# Set-up: species or system S. aureus MSSA476 (TSB) or V. cholerae SAD30 (LB); 384-well bacterial growth screen at 25 uM, OD600 relative to DMSO control
# Conditions: relative growth, OD600, TSB; 25 µM; inhibitor
row,SMILES,% of control remaining [%]
1,"C=CC(=O)N1CCN(Cc2cc(C)no2)CC1 [1-B18, 1-{4-[(3-methyl-1,2-oxazol-5-yl)methyl]piperazin-1-yl}prop-2-en-1-one]",126.945
2,"Cc1c(Cl)cccc1N1C(=O)C=CC1=O [10-B17, 1-(3-chloro-2-methylphenyl)-2,5-dihydro-1H-pyrrole-2,5-dione]",100.625
3,"COc1ccc(C=C(C#N)C(=O)Nc2ccc(C)cc2)cc1 [9-A19, 2-cyano-3-(4-methoxyphenyl)-N-(4-methylphenyl)prop-2-enamide]",94.0824
4,"CC(Cl)C(=O)NC(C)c1ccc(C(F)(F)F)nc1Cl (stereo not shown) [7-G09, 2-chloro-N-{1-[2-chloro-6-(trifluoromethyl)pyridin-3-yl]ethyl}propanamide]",111.774
5,"CC(NC(=O)c1ccccc1NC(=O)CCl)c1ccccc1 (stereo not shown) [4-B07, 2-(2-chloroacetamido)-N-(1-phenylethyl)benzamide]",109.385
6,"COc1ccccc1NC(=O)c1ccc(NC(=O)CCl)cc1 [4-O17, 4-(2-chloroacetamido)-N-(2-methoxyphenyl)benzamide]",92.2344
7,"CCn1cc(S(=O)(=O)N2CCSSCC2)cn1 [10-N19, 5-[(1-ethyl-1H-pyrazol-4-yl)sulfonyl]-1,2,5-dithiazepane]",97.1875
8,"C=CC(=O)N(Cc1cnn(C(C)C)c1)c1ccc2nc(C)oc2c1 [2-C13, N-(2-methyl-1,3-benzoxazol-6-yl)-N-{[1-(propan-2-yl)-1H-pyrazol-4-yl]methyl}prop-2-enamide]",151.088
9,"Cc1cccc(NC(=O)C(C#N)=Cc2ccc(F)c(F)c2)c1 [8-I16, 2-cyano-3-(3,4-difluorophenyl)-N-(3-methylphenyl)prop-2-enamide]",75.6846
10,"C=CC(=O)Nc1ccc(C(F)C(F)(F)F)cc1 (stereo not shown) [1-O20, N-[4-(1,2,2,2-tetrafluoroethyl)phenyl]prop-2-enamide]",90.7253
11,"C=CC(=O)NCC(C)Cn1nccc1C (stereo not shown) [1-H14, N-[2-methyl-3-(5-methyl-1H-pyrazol-1-yl)propyl]prop-2-enamide]",116.396
12,"COc1ccc(NC(=O)C(C)Cl)c([N+](=O)[O-])c1 (stereo not shown) [6-B08, 2-chloro-N-(4-methoxy-2-nitrophenyl)propanamide]",102.098
13,"Cc1ccc(C)c(C=C(C#N)C(=O)NC(C)C)c1 [9-O22, 2-cyano-3-(2,5-dimethylphenyl)-N-(propan-2-yl)prop-2-enamide]",108.764

# Reference: PMC11995724, “Antibiotic target discovery by integrated phenotypic and activity-based profiling of electrophilic fragments” (Cell chemical biology, 2025)
